Test results published in PubChem BioAssay AID504332 (National Center for Advancing Translational Sciences (NCATS), 2011).
Among all 350,000 compounds or so, about 31,000 (8.9%) were called active. The inconclusive results got no clear call from the source; some entries with a clear call stand among them for comparison. Calls come from the whole dose curve; as a rule, active = well fitted inhibition curve with a large enough effect; inconclusive = small, poorly fitted or top-dose-only effect; inactive = no such curve, though single readings can be large or run the other way. A potency beside an inconclusive call is a rough fit, not a confirmed value.

target: Histone-lysine N-methyltransferase EHMT2 (Homo sapiens) (UniProt Q96KQ7); test: qHTS Assay for Inhibitors of Histone Lysine Methyltransferase G9a; settings: G9a H3K9 monomethylation, AlphaScreen, 2 h; activity, negative = inhibition: at 59 µM (top of the series) unless noted; note: nearly all actives have a fitted effect of over 75% in size
Procedure, shortened: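 G9a (20 nM) was preincubated 15 min with compound, then reacted 2 h at room temperature with 500 nM biotin-H3K9 peptide and 20 µM SAM. Monomethyl-H3K9 detected by AlphaScreen using anti-H3K9me1 antibody.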
% is set by controls: 0 for no effect and ±100 for the full control effect; potency is the fitted concentration of half-maximal effect; tags give direction and shape of the fitted curve.

UniProt Q96KQ7, sequence (Q96KQ7 whole entry, looked up): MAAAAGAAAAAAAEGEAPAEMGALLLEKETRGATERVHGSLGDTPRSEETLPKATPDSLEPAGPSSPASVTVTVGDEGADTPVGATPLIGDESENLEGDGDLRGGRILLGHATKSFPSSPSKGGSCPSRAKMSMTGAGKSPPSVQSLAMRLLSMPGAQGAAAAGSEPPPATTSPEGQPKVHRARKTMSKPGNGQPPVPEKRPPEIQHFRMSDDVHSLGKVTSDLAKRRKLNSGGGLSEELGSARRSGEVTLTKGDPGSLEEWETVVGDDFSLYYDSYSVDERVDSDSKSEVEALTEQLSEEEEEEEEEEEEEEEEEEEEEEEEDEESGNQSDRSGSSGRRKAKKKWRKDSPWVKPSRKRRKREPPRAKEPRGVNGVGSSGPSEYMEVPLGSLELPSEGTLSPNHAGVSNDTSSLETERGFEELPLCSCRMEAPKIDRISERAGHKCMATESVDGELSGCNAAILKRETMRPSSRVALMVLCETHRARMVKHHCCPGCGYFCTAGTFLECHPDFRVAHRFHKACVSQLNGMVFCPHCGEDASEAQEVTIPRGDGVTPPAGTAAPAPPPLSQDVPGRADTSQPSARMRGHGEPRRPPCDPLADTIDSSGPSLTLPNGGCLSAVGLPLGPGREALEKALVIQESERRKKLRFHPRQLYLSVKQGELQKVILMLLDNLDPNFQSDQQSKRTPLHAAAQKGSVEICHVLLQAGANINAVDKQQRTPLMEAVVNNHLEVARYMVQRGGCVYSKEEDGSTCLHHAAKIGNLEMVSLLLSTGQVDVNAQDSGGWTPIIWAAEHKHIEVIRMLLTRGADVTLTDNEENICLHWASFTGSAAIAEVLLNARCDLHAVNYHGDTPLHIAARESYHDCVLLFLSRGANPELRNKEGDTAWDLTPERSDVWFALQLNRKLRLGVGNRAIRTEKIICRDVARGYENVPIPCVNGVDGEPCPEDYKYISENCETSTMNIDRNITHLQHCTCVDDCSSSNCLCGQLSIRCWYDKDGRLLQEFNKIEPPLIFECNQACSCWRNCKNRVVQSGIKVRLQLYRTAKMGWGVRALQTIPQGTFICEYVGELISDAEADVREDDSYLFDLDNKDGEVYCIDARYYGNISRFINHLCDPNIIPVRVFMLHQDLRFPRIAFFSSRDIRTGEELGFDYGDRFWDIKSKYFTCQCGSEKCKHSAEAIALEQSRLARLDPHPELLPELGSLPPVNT

Structure (SMILES)	Potency	activity, negative = inhibition
COc1ccc(CNC(=S)NC(C)CCc2ccccc2)cc1 (stereo not drawn)	inconclusive: 44.7 µM [inhibitor, partial curve]	
COc1cccc(Nc2c3c(nc4nncn24)CCC3)c1	inconclusive: 28.2 µM [inhibitor, single point]	
Cc1ccc(S(=O)(=O)NNC(=O)C2CCN(S(=O)(=O)c3ccc(C)cc3)CC2)cc1	inactive	
Cc1ccc(Cl)cc1NC(=O)CCC(=O)Nc1cc(Cl)ccc1C	inconclusive: 89.1 µM [inhibitor, single point]	
COc1ccc(NS(=O)(=O)c2cccc(C(=O)NNC(=O)c3cccn3C)c2)cc1	inconclusive: 89.1 µM [inhibitor, single point]	
CCOc1cc(C2/C(=C(/O)c3ccc(S(=O)(=O)N4CCCCC4)cc3)C(=O)C(=O)N2CCOC)ccc1O (stereo not drawn)	inconclusive: 79.4 µM [inhibitor, single point]	
CCCN1CCN(C(=O)c2oc3c(Cl)cccc3c2C)CC1	inconclusive: 89.1 µM [inhibitor, single point]	
COc1cccc(-c2nnc(SCC(=O)Nc3ccc4c(c3)OCCO4)n2Cc2ccco2)c1		inconclusive: -66.7% [inhibitor]
C=CCC(Nc1ccco1)c1ccccc1 (stereo not drawn)	inconclusive: 1.26 µM [inhibitor, full curve, poor fit]	
Oc1ccc(Cl)cc1N=Nc1ccccc1	active: 22.4 µM	
Cc1ccc(NC(=O)CN2C(=O)S/C(=C\c3ccc(OCC(=O)O)c(Br)c3)C2=O)cc1	active: 44.7 µM	
COc1cccc2cc(C(=O)NCCc3c(C)[nH]c4ccc(Br)cc34)c(=O)oc12	inactive	
O=C(NC(=S)Nc1ccc(Br)cc1)C1CCC1	inconclusive: 79.4 µM [inhibitor, single point]	
CCC1(CC)C(=O)NC(=O)NC1=NCCc1ccc(O)cc1		inconclusive: -60.8% [inhibitor]
NS(=O)(=O)c1cccc(NC(=O)CC23CC4CC(C2)CC(CC(=O)Nc2cccc(S(N)(=O)=O)c2)(C4)C3)c1	inconclusive: 56.2 µM [inhibitor, partial curve, poor fit]	
CC/C(=N/Nc1ccccc1C)c1cnnc(SC)n1	active: 8.91 µM	
NC(=O)CC[C@@H]1NC(=O)[C@H](CO)NC(=O)c2cc([N+](=O)[O-])cc(I)c2NCC[C@@H](C(N)=O)NC(=O)[C@H](Cc2ccc(O)cc2)NC1=O	active: 7.94 µM	
Cc1ccc(CN(C)C(=O)c2ccccc2Oc2ccccc2)o1	inconclusive: 15.8 µM [inhibitor, partial curve, poor fit]	
COc1ccc(/C=C(/NC(=O)c2ccc(OC)c(OC)c2)C(=O)NCCCn2ccnc2)cc1	inactive	
Cc1cc(C)nc(SCCS(=O)Cc2ccc(Cl)cc2)n1 (stereo not drawn)	inconclusive: 11.2 µM [inhibitor, partial curve, poor fit]	
Cc1ccc(-n2ncc(C(=O)Nc3ccc4c(c3)OCO4)c2C2CCN(C(=O)OC(C)(C)C)CC2)cc1	inconclusive: 15.8 µM [inhibitor, partial curve]	
COc1ccc(/C=C/C(=O)Nc2nc3n(n2)C(c2ccccc2)C=C(c2ccccc2)N3)cc1 (stereo not drawn)	inactive	
Cc1ccc(-c2cnc(NCc3ccc(C(F)(F)F)cc3)n2C)cc1	active: 3.55 µM	

Structure (SMILES)	Potency	activity, negative = inhibition
CCN(C(=O)Cn1c(=O)oc2cc(Cl)ccc21)c1cccc(C(F)(F)F)c1	inactive	
CCc1nc(N2CCCCC2C)c2oc3ccccc3c2n1 (stereo not drawn)	inactive	
CCOCCn1ccc2c(OCC(=O)Nc3ccc(OC(F)(F)F)cc3)cccc2c1=O	inactive	
N#CC1=C(SCC(=O)c2ccccc2)NC2=C(C(=O)CCC2)C1c1ccco1 (stereo not drawn)		inconclusive: -72.3% [inhibitor]
COc1ccc(OC)c(C2C(C(C)=O)=C(O)C(=O)N2CCN2CCOCC2)c1 (stereo not drawn)	inconclusive: 25.1 µM [inhibitor, single point]	
CCOC(=O)C1(C)NC(c2ccc(N(C)C)cc2)C2C(=O)N(CC)C(=O)C21 (stereo not drawn)	inconclusive: 28.2 µM [inhibitor, single point]	
CC1CCN(Cc2nc3c(c(=O)n(C)c(=O)n3C)n2CCCc2ccccc2)CC1	inconclusive: 44.7 µM [inhibitor, partial curve, poor fit]	
Cc1ccc(C(CNS(=O)(=O)c2ccc(C)cc2)N2CCN(C)CC2)cc1 (stereo not drawn)	inconclusive: 50.1 µM [inhibitor, partial curve]	
COCCSc1nnc(NC(=O)Cc2cccs2)s1	inconclusive: 22.4 µM [inhibitor, single point]	
N#CC1=C(N)OC2=C(C(=O)CCC2)C1c1cccs1 (stereo not drawn)	inactive	
COc1ccc(Cl)cc1NC(=O)c1c(NCc2sccc2C)sc2c1CCCC2	active: 2.82 µM	
CCN(CC)S(=O)(=O)c1ccc(N2CCCCC2)c(NC(=O)C2=COCCO2)c1	inactive	
COc1ccc(-c2csc(N3N=C(C)C(C)C3=O)n2)cc1 (stereo not drawn)	inactive	
COc1ccc2cc(/C=C3\SC(=S)NC3=O)c(N3CCOCC3)nc2c1	inconclusive: 4.47 µM [inhibitor, full curve]	
COc1ccc(-c2sc(Nc3ccccc3)n[n+]2-c2ccc(F)cc2)cc1Br	inconclusive: 28.2 µM [inhibitor, partial curve]	
CCOC(=O)c1c(-c2ccc(OC)cc2)csc1NC(=O)CSc1ncnc2sccc12	inconclusive: 1 µM [inhibitor, partial curve, poor fit]	
O=[N+]([O-])c1cc(Br)c(OCc2nnc(-c3ccccc3)o2)c(Br)c1	active: 28.2 µM	
CSc1cccc(NC(=O)C2C3C=CC4(O3)C2C(=O)N(CCN2CCOCC2)C4C(=O)NC2CCCCC2)c1 (stereo not drawn)	active: 50.1 µM	
CCOc1ccccc1CNCCN1CCOCC1	inconclusive: 3.16 µM [inhibitor, partial curve, poor fit]	
c1ccc(C2Nc3ccccc3Oc3ccccc32)cc1 (stereo not drawn)	inconclusive: 22.4 µM [inhibitor, single point]	
Cc1oc(-c2ccccc2)cc1C(=O)NC(Cc1c[nH]c2ccccc12)C(=O)O (stereo not drawn)	inconclusive: 31.6 µM [inhibitor, single point]	
COc1ccc(C2CC(c3ccc(Br)cc3)=NN2C(=O)c2cccnc2)cc1 (stereo not drawn)	inconclusive: 31.6 µM [inhibitor, single point]	
O=C(Cn1nnc(-c2ccc(Cl)cc2)n1)NCc1ccc(F)cc1	inactive	

Structure (SMILES)	Potency	activity, negative = inhibition
O=c1cc(-c2ccc(O)cc2)oc2cc(O)c(C3OC(CO)C(O)C(O)C3O)c(O)c12 (stereo not drawn)		inconclusive: -67.8% [inhibitor]
CC1(C(O)(C#CC[N+]2(C)CCCCC2)c2ccccc2)CCCC1 (stereo not drawn)		inconclusive: -69.7% [inhibitor] [at 12.7 µM]
COc1ccccc1N(C)S(=O)(=O)c1ccc(C(=O)OCC(=O)Nc2ccccc2F)cc1	inconclusive: 31.6 µM [inhibitor, partial curve, poor fit]	
Cc1onc(-c2c(F)cccc2Cl)c1C(=O)NCCCN1CCOCC1	inconclusive: 31.6 µM [inhibitor, partial curve, poor fit]	
COc1cc(CNCCSc2nnnn2C)cc(Br)c1OCc1ccccc1F	inconclusive: 1.78 µM [inhibitor, partial curve, poor fit]	
O=C(Cc1csc(NC(=O)Nc2cccc(Cl)c2)n1)NCc1ccccn1	inconclusive: 50.1 µM [inhibitor, partial curve, poor fit]	
Cc1ccc(CNC(=O)Cn2cc(S(=O)(=O)Cc3ccccc3F)c3ccccc32)cc1	inactive	
CC12CCC(C(=O)Nc3ccccc3-n3cccc3)(CC1=O)C2(C)C (stereo not drawn)	inconclusive: 56.2 µM [inhibitor, partial curve, poor fit]	
O=C(NCCCNc1ccc(C(F)(F)F)cc1[N+](=O)[O-])c1ccc(F)cc1	inconclusive: 3.16 µM [inhibitor, partial curve, poor fit]	
Cc1ccc(/C=N/N2CCN(c3ccccn3)CC2)cc1	inconclusive: 17.8 µM [inhibitor, full curve]	
C/C(=N\NC(=O)c1ccncc1)c1cc2ccccc2o1	inactive	
COc1cccc(OCc2cc(C(=O)N3CCN(C)C(c4ccccc4)C3)no2)c1 (stereo not drawn)	inactive	
CCc1ccc2nc(N(CCN(C)C)C(=O)/C=C/c3cccs3)sc2c1	inconclusive: 39.8 µM [inhibitor, partial curve, poor fit]	
O=S(=O)(CCOc1ccccc1)c1nc2ccccc2[nH]1		inconclusive: -67.4% [inhibitor]
O=C(Oc1cccc2ccccc12)c1ccco1	inconclusive: 3.55 µM [inhibitor, single point]	
CCCCN(Cc1cc2cc(OC)ccc2[nH]c1=O)C(=O)c1ccccn1	inconclusive: 14.1 µM [inhibitor, partial curve, poor fit]	
O=C(CSc1ncn(-c2ccccc2)n1)N1CCN(c2ccccc2)CC1		inconclusive: -80.7% [inhibitor]
CC(C)N(CCCNC(=O)CC1Oc2ccccc2NC1=O)Cc1ccccc1 (stereo not drawn)	inconclusive: 89.1 µM [inhibitor, single point]	
O=C(O)/C=C/C(=O)NNC(=O)c1ccc(Cl)cc1Cl	inconclusive: 31.6 µM [inhibitor, partial curve]	
COc1cccc(NC(=O)CN(C)C(=O)COc2ccc3ccccc3c2)c1	inconclusive: 79.4 µM [inhibitor, single point]	
CCc1ccccc1NC(=O)c1cnc2sc(N3CCOCC3)nn2c1=O	inactive	
O=C(OCC(=O)N1CCN(C(=O)c2ccco2)CC1)c1cc(-c2cccc(Br)c2)nc2ccccc12	active: 14.1 µM	
